# Experimental data as given in PubChem BioAssay AID1508642 (National Center for Advancing Translational Sciences (NCATS), 2021).
# Among all 43,000 compounds or so, about 200 (0.47%) were called active. Roughly 12% stayed inconclusive and do not appear here. The call rests on the fitted dose curve; in most records, active means well fitted cell-killing curve with a large enough effect; inconclusive means small, poorly fitted or top-dose-only effect, or effect the other way; inactive means flat fitted curve, though single readings scatter. The list shows a part of the results.
# Test: Cell viability qHTS assay in S16 Pmp22-F2sN cells; further: nearly all actives have a fitted effect of over 65% in size
# Details: S16 Pmp22-F2sN Schwann cells (luciferase reporters placed in the Pmp22 gene) viability, CellTiter-Glo, 24 h; series mostly up to 57.5 µM; activity change, negative = cytotoxicity: at the top concentration
# Summary of the method: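 Rat S16 Schwann reporter line, 24 h treatment with library compounds delivered at 23 nL per well. Cell viability by CellTiter-Glo luminescence.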
# On the % scale 0 is the no-effect control and ±100 the full control effect.
row,SMILES,"activity change, negative = cytotoxicity"
1,CNc1c(NC(=O)c2ccc(OC)c(OC)c2)c(=O)oc2ccccc12,inactive: -2.11%
2,COc1cccc(CNC(=O)C2CCC(CNS(=O)(=O)c3ccc4c(c3)CCCC(=O)N4)CC2)c1 (stereo unspecified),inactive: 1.96%
3,CCN(CC)C(=O)Cn1c(=O)cc(C)c2c(C)nn(-c3cccc(Cl)c3C)c21,inactive: -29.4%
4,Cc1ccc(NC(=O)CSc2nnc3scc(-c4ccc(Cl)cc4)n23)cc1,inactive: -13%
5,Cc1cc2c(cc1S(=O)(=O)CCC(=O)N1CCC(C)CC1)OCC(=O)N2,inactive: 10.6%
6,CCc1ccc(C(=O)c2cn(CC(=O)Nc3ccc4c(c3)OCO4)c3ccc(CC)cc3c2=O)cc1,inactive: -4.52%
7,Cc1ccc(NC(=O)C(Cc2c[nH]c3ccccc23)NC(=O)OC(C)(C)C)c(C)c1 (stereo unspecified),inactive: -16.7%
8,Cc1cc(C)cc(NC(=O)NCCc2c(C)nn(C)c2C)c1,inactive: 9.11%
9,COc1ccc(NC(=O)CN2C(=O)CCn3nc(-c4cccn4C)cc32)cc1,inactive: -5.65%
10,Cc1cc(Nc2ccccc2F)n2nc(-c3ccccc3)nc2n1,inactive: 16.4%
11,CCOC(=O)C1CCN(c2cc3c(cc2NC(=O)c2ccc(Cl)cc2)n(C)c(=O)n3C)CC1,inactive: 3.23%
12,COC(=O)c1ccc(Cl)cc1NC(=O)N1CC2CCCN2c2ccccc21 (stereo unspecified),inactive: 1.7%
13,COc1ccc(S(=O)(=O)NCc2ccc3c(c2)CCN3C(=O)c2ccccc2)cc1OC,inactive: 1.88%
14,Cc1cc(C)c(Nc2nc3ccccc3n3c(C)nnc23)c(C)c1,inactive: 3.09%
15,CCOc1ccc(-c2c(C)nn3c(C)c(C(=O)NCc4cccc(OC)c4)cnc23)cc1OCC,inactive: 0.243%
16,CC(C)(C)C(=O)Nc1ccc(-c2nc3ccccc3s2)cc1,inactive: 0.187%
17,CCc1ccc(CN2C(=O)c3ccccc3C2C(=O)NC2CCCCCC2)cc1 (stereo unspecified),inactive: 12%
18,CCOC(=O)c1ccc(NC(=O)CC2C(=O)N(c3ccccc3)C(=O)N2Cc2ccc(C)cc2)cc1 (stereo unspecified),inactive: -2.61%
19,Cc1nn(C(=O)COc2ccc(Cl)cc2)c(C)c1Sc1ccccc1,inactive: 23.8%
20,COc1ccc(C(=O)Nc2cnc3ccccn3c2=O)cc1,inactive: 18.7%
21,COc1ccc(CCNC(=O)CCCn2c(=O)c3ccccc3n(CC(=O)Nc3cccc(C)c3)c2=O)cc1OC,inactive: 7.93%
22,CCc1ccccc1Nc1nn2c(=O)c3ccc(C(=O)NC4CCC(C)CC4)cc3nc2s1 (stereo unspecified),inactive: -11.7%
23,CC(=O)Nc1ccc(S(=O)(=O)NCc2ccc3c(c2)CCN3C(C)=O)cc1,inactive: -12%
24,Cc1oc(-c2ccccc2)nc1Cn1c(SCc2cccc(C(F)(F)F)c2)nc2cccnc21,inactive: -1.3%

row,SMILES,"activity change, negative = cytotoxicity"
1,CCc1cnc2c(c1SCc1c(F)cccc1Cl)c(=O)n(C)c(=O)n2C,inactive: 6.24%
2,COc1ccc(-n2ncc(C(=O)N3CCN(Cc4ccccc4)CC3)c2C2CCN(C(=O)OC(C)(C)C)CC2)cc1,inactive: -16.3%
3,CCOc1cc(C(=O)N(Cc2nc(-c3ccc(C)cc3)no2)C(C)C)cc(OCC)c1OCC,inactive: -24.6%
4,CCc1ccc(NC(=O)CSc2nc3n[nH]c(C)c3c(=N)n2-c2ccc(C)cc2)cc1,inactive: -3.29%
5,O=C(Cc1ccc(NC(=O)N2CCCCc3ccccc32)cc1)NCc1ccccc1Br,inactive: 0.734%
6,Cc1cccc(CCNC(=O)C2CCC(CNS(=O)(=O)c3c(C)cc(C)cc3C)CC2)c1 (stereo unspecified),inactive: -28.7%
7,COc1cc(Cl)c(C)cc1NC(=O)Cn1cc(S(=O)(=O)N2CCN(c3ccccc3F)CC2)c2ccccc2c1=O,inactive: 13.1%
8,COc1ccccc1CNc1ccc(-c2nc(-c3ccccn3)no2)cc1[N+](=O)[O-],inactive: -1.94%
9,O=C(NCc1ccc(F)cc1)c1c2c(nc3ccccc13)C(=O)N(C1CCCCC1)C2,inactive: 3.22%
10,COc1ccc(OC)c(NC(=O)CCNS(=O)(=O)c2cccc3nsnc23)c1,inactive: -0.947%
11,Cc1ccc(NC(=O)CN(C)S(=O)(=O)c2ccc3c(c2)n(C)c(=O)c(=O)n3C)c(C)c1,inactive: 3.66%
12,N#Cc1ccc(OC(=O)c2cc(-c3ccc(Cl)cc3)on2)cc1,inactive: 0.803%
13,O=C(CCC1N=C2c3ccccc3N=C(SCC(=O)Nc3ccccc3F)N2C1=O)NCc1ccco1 (stereo unspecified),inactive: -19.2%
14,Cc1cccc(NS(=O)(=O)c2ccc3[nH]c(=O)[nH]c3c2)c1C,inactive: -26.6%
15,CC1CCN(c2cc3c(cc2F)c(=O)c(S(=O)(=O)c2cccc(Cl)c2)cn3Cc2ccccc2)CC1,inactive: -4.36%
16,COc1ccccc1CNS(=O)(=O)c1ccc(-c2cc(C(F)(F)F)on2)s1,inactive: -20%
17,CC1CCc2c(sc(NC(=O)Cn3nnc(-c4ccc(C(F)(F)F)cc4)n3)c2C#N)C1 (stereo unspecified),inactive: 0.532%
18,COc1ccc(NC(=O)C(=O)NCCc2sc(-c3ccc(Cl)cc3)nc2C)cc1,inactive: -1.83%
19,CCOc1ccccc1-c1noc(CSc2nnc(-c3ccccc3)n2-c2cccc(C)c2)n1,inactive: 4.66%
20,CCOc1ccc(NC(=O)c2ccc3c(SCC(=O)O)c4c(nc3c2)CCC4)cc1,inactive: 4.59%
21,COc1ccccc1NC(=O)N1CCN(c2nnc(C)c3c(C)n(-c4ccc(Cl)cc4)nc23)CC1,inactive: -2.85%
22,CCOc1ccccc1NC(=O)COC(=O)c1cn(CC)c2nc(C)ccc2c1=O,inactive: 17.1%
23,O=C(Nc1cccc(C(F)(F)F)c1)N1CCC(CN2CCCCCC2)CC1,inactive: 17.8%
24,COc1ccccc1C(=O)Nc1ccc(NC(=O)c2cccs2)cc1,inactive: -0.565%

row,SMILES,"activity change, negative = cytotoxicity"
1,CCOc1ccc(S(=O)(=O)NCC(c2ccco2)S(=O)(=O)c2ccc(C)cc2)cc1 (stereo unspecified),inactive: -2.01%
2,COc1ccc(Nc2cc(C(=O)NCCCN(C)Cc3ccccc3)c3ccccc3n2)c(OC)c1,inactive: 11.4%
3,CCOc1ccc(NC(=O)c2ccc3snnc3c2)cc1,inactive: 13.9%
4,CCOC(=O)c1cnc2ccc(OCC)cc2c1N1CCN(c2ccccc2F)CC1,inactive: -5.11%
5,CCOC(=O)C1CCC(CN(Cc2ccc(OC)cc2)S(=O)(=O)c2ccc(F)c(C(=O)Nc3cc(C)ccc3C)c2)CC1 (stereo unspecified),inactive: 1.43%
6,Cc1cccc(-c2nc(CSc3nncn4c3cc3sccc34)c(C)o2)c1,inactive: 5.75%
7,CCOC(=O)c1ccc(CN(Cc2ccccc2)S(=O)(=O)c2ccc(Cl)cc2)cc1,inactive: 0.187%
8,CC(C)Oc1ccc(CNC(=O)C2CCN(C(=O)N3CC(C)Oc4ccccc43)CC2)cc1 (stereo unspecified),inactive: 3.77%
9,CC(=O)c1cc(-c2ccccc2)n(CC(=O)NCCc2ccc(C)cc2)c1C,inactive: 3.23%
10,FC(F)(F)c1cc(-c2cccc(Br)c2)nc2ncnn12,inactive: 6.68%
11,COc1ccc(-c2csc3nc(-c4ccccc4)oc(=O)c23)cc1OC,inactive: 11.8%
12,O=C(NC1CCCCC1)c1ccc(CSc2nc3ccncc3n2Cc2ccccc2F)cc1,inactive: -12.6%
13,COc1ccc(NC(=O)CSc2nc(-c3cccs3)cc(C(F)(F)F)n2)c(OC)c1,inactive: -4.15%
14,COCCCNC(=O)c1ccc2c(c1)nc1n2CCCCC1,inactive: 6.29%
15,CCOc1ccc2nc(N3CCC(C(=O)Nc4cc(C)ccc4C)CC3)sc2c1,inactive: 0.128%
16,Cc1noc(Cn2c(=O)c3cc4c(cc3n(CC(=O)Nc3ccccc3F)c2=O)OCO4)n1,inactive: 4.19%
17,CCN(CC)CCCNC(=O)CSc1nc(-c2ccc(OC)cc2)cc(C(F)(F)F)n1,inactive: -17.4%
18,O=C(CSCc1cnn(-c2ccccc2)c1-n1cccc1)NCc1ccc(F)cc1,inactive: -8.81%
19,CCc1ccc(NC(=O)CSc2ccc(-c3cccs3)nn2)cc1,inactive: 8.55%
20,CCCCN(CC)C(=O)C1CCCN(c2ncnc3c2nc2n3CCCCC2)C1 (stereo unspecified),inactive: -14.9%
21,CCOc1ccc(CNC(=O)CCn2c(=O)c3cccn3c3ccc(F)cc32)cc1,inactive: -2.95%
22,CCOC(=O)c1ccc(NC(=O)c2ccc(CN3C(=O)CCn4nc(C)cc43)cc2)cc1,inactive: 5.39%
23,O=C(CSc1nc2ccsc2c(=O)n1-c1ccc(Br)cc1)NCc1ccccc1,inactive: 4.04%
24,Cc1ccccc1Cn1cnc2nc3c(cc2c1=O)CC(C)CC3 (stereo unspecified),inactive: 3.09%

row,SMILES,"activity change, negative = cytotoxicity"
1,CCc1cccc(C)c1NC(=O)CCCn1nc(C)c2sc3ccccc3c2c1=O,inactive: 1.07%
2,Cc1cc(N2CCCCC2)nc2ccc(NC(=O)/C=C/c3ccc(OCCC(C)C)cc3)cc12,inactive: -7.45%
3,O=C(NCc1nc2ccccc2[nH]1)c1cccc(Cl)c1,inactive: -1.75%
4,O=C(Cn1c(=O)c2ccccc2n2nncc12)Nc1cccc(F)c1,inactive: 27.6%
5,CC1CCN(c2ccc(-c3nc(-c4ccccc4)no3)cc2[N+](=O)[O-])CC1,inactive: 8%
6,CCOC(=O)c1c(C)[nH]c(C)c1S(=O)(=O)N(C)CC(=O)NCc1cccc(Br)c1,inactive: -9.11%
7,COc1ccc(NC(=O)NCCn2nnc3cc(S(=O)(=O)N(C)C)ccc32)cc1,inactive: -24%
8,Cc1ccc2c(CNC3CCCC3)c(C(=O)O)n(Cc3ccc(F)cc3)c2c1,inactive: 16.2%
9,CN(C(=O)CSc1nc2ccccc2n1CC(=O)N(C)C1CCCCC1)c1ccccc1,inactive: 7.73%
10,CCOC(=O)C1CCCN(C(=O)c2ccc3c(c2)N(Cc2ccc(Cl)cc2)C(=O)c2ccccc2S3=O)C1 (stereo unspecified),inactive: 21.4%
11,Cc1noc(/C=C/c2ccccc2F)c1S(=O)(=O)N1CCC(C(=O)Nc2ccc(C#N)cc2)CC1,inactive: -4.45%
12,CCCCNC(=O)CCn1c(=O)c2ccccc2n(Cc2cccc(Cl)c2)c1=O,inactive: 18.7%
13,Cc1cccc(NC(=O)CN2C(=O)CCn3nc(-c4cccn4C)cc32)c1C,inactive: -7.63%
14,COc1ccc(NC(=O)C2CCN(S(=O)(=O)c3cc(-c4noc(C)n4)ccc3C)CC2)cc1,inactive: -4.93%
15,Cc1ccc(C)c(NC(=O)c2cc(S(=O)(=O)NCCc3ccccc3)ccc2F)c1,inactive: -18.5%
16,Cc1ccc(OCC(=O)Nc2nnc(SCc3cc(=O)c4ccccc4[nH]3)s2)cc1C,inactive: 9.08%
17,COc1ccccc1C(=O)n1nc(-c2cccnc2)nc1NCc1ccccc1,inactive: 1.49%
18,Cc1ccc(Cl)cc1NC(=O)c1ccc(NC(=O)N2CCSc3ncccc32)cc1,inactive: -19.3%
19,Cc1cccc(-c2nc3c4ccccc4nc(N4CCN(c5ccc(F)cc5)CC4)n3n2)c1,inactive: 13%
20,O=C(CCCc1ccccc1)NC1CC(=O)N(c2ccc(Cl)cc2)C1 (stereo unspecified),inactive: -5.43%
21,CC1=C(c2ccc(C(C)C)cc2)S(=O)(=O)N=C1N1CCN(c2ccc(F)cc2)CC1,inactive: -5.5%
22,CC1=Nc2cc(C(=O)NC3CCCCC3)ccc2Sc2ccc(Cl)cc21,inactive: -5.86%
23,COc1ccc(NC(=O)c2coc(=O)c3ccccc23)cc1OC,inactive: -12.3%
24,CCc1ccccc1NC(=O)Cn1nnc(-c2nc(-c3ccncc3)no2)c1N,inactive: 1.25%
